# Assay results reported in PMC6919601, “Identification of Plasmodium dipeptidyl aminopeptidase allosteric inhibitors by high throughput screening” (PLoS ONE, 2019).
# About 230 (0.21%) of roughly 110,000 compounds showed an effect of 50% or more. The list shows a part of the results.
# Target: DPAP1 (Plasmodium falciparum, UniProt Q8IIJ9)
# Experiment: primary screen, percent inhibition; read by cleavage of a fluorogenic dipeptide substrate; higher = more effect of the substance
# Design: species or system P. falciparum D10 trophozoite lysates; single well
# 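Further: 30 min substrate incubation versus DMSO and 10 µM JCP410 controls.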
# DPAP1, sequence (Q8IIJ9 whole entry, looked up): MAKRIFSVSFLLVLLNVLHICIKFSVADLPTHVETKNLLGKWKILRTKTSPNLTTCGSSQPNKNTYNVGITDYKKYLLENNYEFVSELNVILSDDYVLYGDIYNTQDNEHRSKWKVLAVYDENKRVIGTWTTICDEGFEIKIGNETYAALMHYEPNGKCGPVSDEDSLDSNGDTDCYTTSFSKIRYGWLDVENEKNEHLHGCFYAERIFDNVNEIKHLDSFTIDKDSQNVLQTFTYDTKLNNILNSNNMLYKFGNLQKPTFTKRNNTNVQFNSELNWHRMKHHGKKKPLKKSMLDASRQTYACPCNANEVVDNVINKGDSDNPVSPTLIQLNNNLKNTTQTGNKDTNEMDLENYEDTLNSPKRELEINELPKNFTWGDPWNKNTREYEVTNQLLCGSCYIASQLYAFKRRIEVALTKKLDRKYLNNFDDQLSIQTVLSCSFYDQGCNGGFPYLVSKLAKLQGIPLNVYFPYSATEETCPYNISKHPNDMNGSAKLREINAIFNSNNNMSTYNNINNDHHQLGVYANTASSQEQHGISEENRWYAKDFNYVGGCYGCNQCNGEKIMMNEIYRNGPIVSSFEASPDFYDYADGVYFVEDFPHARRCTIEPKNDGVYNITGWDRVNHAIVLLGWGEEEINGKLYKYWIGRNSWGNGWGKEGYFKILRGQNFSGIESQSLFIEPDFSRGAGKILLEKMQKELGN
row,Compound,% Inhibition @ 10 uM [%]
1,Cc1ccc(-n2ncc3c(O)nc(SC(C)C)nc32)cc1,-3.35
2,Cc1cc(/C=C\c2ccc(Cl)cc2)cs1,-2.45
3,Cc1ccccc1C(=O)Nc1cc(Cl)cc(Cl)c1,0.526
4,CC1(C)Cc2c(c(S)sc(=N)c2C#N)CO1,8.27
5,CCOc1ccc(S(=O)(=O)N(CC(=O)N2CCc3ccccc3C2)c2ccc(C)cc2)cc1,4.12
6,CCC(C)c1ccc(-n2c(C)cc(/C=C3/C(=N)N4C=CSC4=NC3=O)c2C)cc1 (centres unmarked),-1.17
7,CC(NC(=O)c1ccccc1NC(=O)CN1C(=O)c2ccccc2S1(=O)=O)c1ccccc1 (centres unmarked),2.95
8,CC1CC(C)CN(C(=O)C(Cc2ccccc2)NS(=O)(=O)c2cccc3nsnc23)C1 (centres unmarked),2
9,COCCNC(=O)c1cnn(-c2ccc(F)cc2)c1-n1cccc1,-8.21
10,CCC(Sc1nc2cccnc2[nH]1)C(=O)N(Cc1ccccc1)C(C)C (centres unmarked),-5.88
11,Cc1ccc(S(=O)(=O)Nc2ccc3c(c2)ncn3C(C)(C)C)cc1,-2.37
12,Cc1cc(O)c(Cn2c3ccccc3c3ccccc32)cc1C,0.526
13,Cn1cc(/C=C2/SC(=O)N(CC(=O)N3CCN(c4ccccc4)CC3)C2=O)c2ccccc21,2.01
14,CC(CCc1ccc(O)cc1)Nc1ccccc1F (centres unmarked),-6
15,Cc1ccc(NC(=O)Nc2cccs2)nc1,0.0882
16,O=c1cccc2n1CC1CC2CN(Cc2nnc(-c3ccc4c(c3)OCO4)o2)C1 (centres unmarked),-5.05
17,CSC1=C(C#N)C(c2ccc(OCc3ccccc3)cc2)C2=C(O)CCCC2=N1 (centres unmarked),-5.08
18,Cc1ccc(C)c(CSc2nncn3c2cc2oc(C)cc23)c1,4.92
19,CC(C)C[C@H](NC(=O)N1CCC(Cc2ccccc2)CC1)C(=O)NCC#N,-0.207
20,CCOc1ccc(/C=C2/N=C(c3ccc(OC)c(Br)c3)OC2=O)cc1,2.28
21,C=CCOc1ccccc1CN(CC)CCN(CC)CC,-4.04

row,Compound,% Inhibition @ 10 uM [%]
1,O=C(c1cc([N+](=O)[O-])cc([N+](=O)[O-])c1)N1CCCC1,-4.61
2,CCOc1ccc(CCNC(=O)c2cn(CC)c3nc(C)ccc3c2=O)cc1OCC,4.35
3,Cc1nn(CCCC(=O)N2CCN(c3ccccn3)CC2)c(=O)c2cc3sccc3n12,1.8
4,O=C(O)COc1ccc(Br)cc1C1C2=C(O)CCCC2=NC2=C1C(=O)CCC2 (centres unmarked),3.05
5,COc1ccc(-c2c(C)nn3c(O)cc(C(F)(F)F)nc23)cc1,0.132
6,Cc1ccc(NC(=O)c2cccnc2)cc1Cl,0.247
7,COC(=O)c1cc(S(=O)(=O)N(Cc2ccccc2OC)C2CCN(C)CC2)cn1C,0.0489
8,O=C(Cn1nc(-c2ccc(Cl)cc2)ccc1=O)NCCCN1CCOCC1,-3.58
9,COc1ccc(C(=O)Nc2cc(Cl)ccc2Cl)cc1N,-2.47
10,CN1CCN(C(=O)c2ccc(-n3cnc4cccnc43)cc2)CC1,6.18
11,CC(C)Sc1nnnn1-c1ccccc1,-6.55
12,CC1CCCN(C2CC(=O)N(c3ccc(N4C(=O)CC(N5CCCC(C)C5)C4=O)cc3)C2=O)C1 (centres unmarked),-6.4
13,CC(C)C[C@H](NC(=O)OCC1CCC1)C(=O)NCC#N,-1.41
14,O=C(NCC1CCCO1)C1CC2CCC1C2 (centres unmarked),-3.32
15,O=C(CCN1CCc2ccccc2C(O)(c2ccccc2)C1)c1ccc2c(c1)OCCO2 (centres unmarked),-1.22
16,CCc1ccc(C2C(C#N)=C(N)OC3=C2C(=O)CC(c2ccccc2)C3)cc1 (centres unmarked),1.96
17,COCCCn1c(=N)c(C(=O)NC(C)c2ccccc2)cc2c(=O)n3ccccc3nc21 (centres unmarked),1.97
18,Cc1ccnc(-n2c(C)cc(/C=C3/NC(=O)N(c4ccccc4)C3=O)c2C)c1,-3.72
19,CCN(CC)C(=O)CN(Cc1ccc(Cl)c(Cl)c1)S(=O)(=O)c1ccc(Cl)cc1,-1.95
20,COc1ccc(C(=N)NOC(=O)c2ccc(C(C)(C)C)cc2)cc1,-5.08
21,C/C=C\CC(NC(=O)c1ccccc1)C(=O)NCC#N (centres unmarked),-6.98

row,Compound,% Inhibition @ 10 uM [%]
1,O=C(/C=C(\Nc1ccc(S(=O)(=O)Nc2ccc3ccccc3c2)cc1)c1ccccc1)c1ccccc1,-0.736
2,Cn1c(=O)c2c(ncn2CC(=O)Nc2ccccc2)n(C)c1=O,13.5
3,CC(CC(C)C(=O)Nc1ccccc1)C(=O)O (centres unmarked),-2.65
4,Cc1scc(CN2CCN(Cc3ccc4c(c3)OCO4)CC2)c1C,3.1
5,COc1ccccc1-c1ccc(C(=O)N[C@@H](CC(C)C)C(=O)NCC#N)o1,-3.04
6,CCOC(=O)c1c(CN2CCCCC2C)oc2ccc(OC)cc12 (centres unmarked),4.08
7,N#Cc1cn(-c2ccccc2)nc1C(=O)c1ccccc1,-0.759
8,COc1ccc(C(=O)N2CCN(c3ccc(C)c(Cl)c3)CC2)cc1OC,0.475
9,COc1ccc(OC)c(/C=C2\N=C(c3cc(OC)c(OC)c(OC)c3)OC2=O)c1,-0.265
10,C=CCN1C(=O)N/C(=C/c2ccc(OC)c(C)c2)C1=O,-10.2
11,Cc1cccc(CNC(=O)C2CCCN(c3nn4c(=O)cc(C)nc4s3)C2)c1 (centres unmarked),-1.6
12,O=c1c(-c2ccccc2)c(O)cc(-c2ccncc2)n1-c1ccccc1,4
13,CC(NC(=O)/C(=C\c1ccccc1)NC(=O)c1ccco1)C(=O)O (centres unmarked),0.587
14,COc1cc(C(=O)Nc2c(-c3ccc(F)cc3)nc3ccccn23)cc(OC)c1OC,-0.58
15,CCOc1ccc(C2C(C#N)=C(N)N(c3nc[nH]n3)C3=C2C(=O)CC(C)(C)C3)cc1 (centres unmarked),3.99
16,C=CCOc1ccccc1/C=C1\C(=O)ON=C1c1ccccc1,-5.85
17,COc1cccc(C(=O)OCCN(C)Cc2ccccc2)c1,5.4
18,Cc1cccc(NC(=O)Cc2ccc(-c3ccccc3)cc2)c1C,-3.03
19,COCCNC(=S)N(CCc1c(C)[nH]c2ccccc12)Cc1cc(OC)c(OC)c(OC)c1,2.17
20,O=C1CSc2ccc(S(=O)(=O)Nc3ccccc3)cc2N1,0.188
